# From the supplement of paper PMC8728848
# This is one part of the list.
# What was measured:
# Experiment in all cases: glycan array binding signal (z-score within array); higher = stronger binding
# Conditions in all cases: glycan notation: IUPAC condensed, linker removed
# [1] = target: Man(a1-3)[Man(a1-6)]Man(a1-6)[Man(a1-3)]Man
# Method in brief: (§1)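 Glycan array data were curated from 3228 arrays in the Consortium for Functional Glycomics database and kept only where the protein sequence was available. Glycan names were converted to IUPAC-condensed notation, and columns mapping to the same glycan were averaged. The binding signal is a within-array Z-score, averaged across arrays of the same protein sequence at different concentrations or buffers and across linkers. Negative Z-scores can be read as non-binding.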
# [2] = target: Man(a1-3)[Man(a1-6)]Man(a1-6)[Man(a1-3)]Man(b1-4)GlcNAc(b1-4)GlcNAc
# Method in brief: as §1
# [3] = target: Man(a1-3)[Man(a1-6)]Man(b1-4)GlcNAc(b1-4)GlcNAc
# Method in brief: as §1
# [4] = target: Man(a1-3)[Man(a1-6)]Man(b1-4)GlcNAc(b1-4)[Fuc(a1-6)]GlcNAc
# Method in brief: as §1
# [5] = target: Man(a1-6)Man
# Method in brief: as §1
# [6] = target: Man(b1-4)GlcNAc
# Method in brief: as §1
# [7] = target: MurNAc(b1-4)GlcNAc
# Method in brief: as §1
# [8] = target: Neu5Ac(a2-3)Gal
# Method in brief: as §1
# [9] = target: Neu5Ac(a2-3)Gal(b1-3)GalNAc
# Method in brief: as §1
# [10] = target: Neu5Ac(a2-3)Gal(b1-3)GalNAc(b1-3)Gal(a1-4)Gal(b1-4)Glc
# Method in brief: as §1
# [11] = target: Neu5Ac(a2-3)Gal(b1-3)GalNAc(b1-4)[Neu5Ac(a2-3)]Gal(b1-4)Glc
# Method in brief: as §1
# [12] = target: Neu5Ac(a2-3)Gal(b1-3)GalNAc(b1-4)[Neu5Ac(a2-8)Neu5Ac(a2-3)]Gal(b1-4)Glc
# Method in brief: as §1
# [13] = target: Neu5Ac(a2-3)Gal(b1-3)GalNAc6S
# Method in brief: as §1
# [14] = target: Neu5Ac(a2-3)Gal(b1-3)GlcNAc
# Method in brief: as §1
# [15] = target: Neu5Ac(a2-3)Gal(b1-3)GlcNAc(b1-2)Man
# Method in brief: as §1
# [16] = target: Neu5Ac(a2-3)Gal(b1-3)GlcNAc(b1-2)Man(a1-3)[GlcNAc(b1-4)][Neu5Ac(a2-3)Gal(b1-3)GlcNAc(b1-2)Man(a1-6)]Man(b1-4)GlcNAc(b1-4)GlcNAc
# Method in brief: as §1
# [17] = target: Neu5Ac(a2-3)Gal(b1-3)GlcNAc(b1-2)Man(a1-3)[Neu5Ac(a2-3)Gal(b1-3)GlcNAc(b1-2)Man(a1-6)]Man(b1-4)GlcNAc(b1-4)GlcNAc
# Method in brief: as §1
# [18] = target: Neu5Ac(a2-3)Gal(b1-3)GlcNAc(b1-3)Gal(b1-3)GlcNAc
# Method in brief: as §1
# [19] = target: Neu5Ac(a2-3)Gal(b1-3)GlcNAc(b1-3)Gal(b1-4)GlcNAc
# Method in brief: as §1
# [20] = target: Neu5Ac(a2-3)Gal(b1-3)GlcNAc(b1-3)GalNAc
# Method in brief: as §1
# [21] = target: Neu5Ac(a2-3)Gal(b1-3)GlcNAc(b1-4)Gal(b1-4)Glc
# Method in brief: as §1
# [22] = target: Neu5Ac(a2-3)Gal(b1-3)GlcNAc(b1-6)GalNAc
# Method in brief: as §1
# [23] = target: Neu5Ac(a2-3)Gal(b1-3)GlcNAc6S
# Method in brief: as §1
# [24] = target: Neu5Ac(a2-3)Gal(b1-3)[Fuc(a1-4)]GlcNAc
# Method in brief: as §1
# [25] = target: Neu5Ac(a2-3)Gal(b1-3)[Fuc(a1-4)]GlcNAc(b1-3)Gal(b1-3)[Fuc(a1-4)]GlcNAc
# Method in brief: as §1
# [26] = target: Neu5Ac(a2-3)Gal(b1-3)[Fuc(a1-4)]GlcNAc(b1-3)Gal(b1-4)[Fuc(a1-3)]GlcNAc
# Method in brief: as §1
# [27] = target: Neu5Ac(a2-3)Gal(b1-3)[GlcNAc(b1-6)]GalNAc
# Method in brief: as §1
# [28] = target: Neu5Ac(a2-3)Gal(b1-3)[Neu5Ac(a2-6)]GalNAc
# Method in brief: as §1
# [29] = target: Neu5Ac(a2-3)Gal(b1-3)[Neu5Ac(a2-6)]GlcNAc(b1-3)[Fuc(a1-3)[Gal(b1-4)]GlcNAc(b1-6)]Gal(b1-4)Glc
# Method in brief: as §1
# [30] = target: Neu5Ac(a2-3)Gal(b1-3)]Neu5Ac(a2-3)Gal(b1-4)]GlcNAc
# Method in brief: as §1
# [31] = target: Neu5Ac(a2-3)Gal(b1-4)Glc
# Method in brief: as §1
# [32] = target: Neu5Ac(a2-3)Gal(b1-4)GlcNAc
# Method in brief: as §1
# [33] = target: Neu5Ac(a2-3)Gal(b1-4)GlcNAc(b1-2)Man
# Method in brief: as §1
# [34] = target: Neu5Ac(a2-3)Gal(b1-4)GlcNAc(b1-2)Man(a1-3)[GlcNAc(b1-4)][Neu5Ac(a2-3)Gal(b1-4)GlcNAc(b1-2)Man(a1-6)]Man(b1-4)GlcNAc(b1-4)GlcNAc
# Method in brief: as §1
# [35] = target: Neu5Ac(a2-3)Gal(b1-4)GlcNAc(b1-2)Man(a1-3)[Neu5Ac(a2-3)Gal(b1-4)GlcNAc(b1-2)Man(a1-6)]Man(b1-4)GlcNAc(b1-4)GlcNAc
# Method in brief: as §1
# [36] = target: Neu5Ac(a2-3)Gal(b1-4)GlcNAc(b1-2)Man(a1-3)[Neu5Ac(a2-3)Gal(b1-4)GlcNAc(b1-2)Man(a1-6)]Man(b1-4)GlcNAc(b1-4)[Fuc(a1-6)]GlcNAc
# Method in brief: as §1
# [37] = target: Neu5Ac(a2-3)Gal(b1-4)GlcNAc(b1-2)Man(a1-3)[Neu5Ac(a2-6)Gal(b1-4)GlcNAc(b1-2)Man(a1-6)]Man(b1-4)GlcNAc(b1-4)GlcNAc
# Method in brief: as §1
# [38] = target: Neu5Ac(a2-3)Gal(b1-4)GlcNAc(b1-2)[Neu5Ac(a2-3)Gal(b1-4)GlcNAc(b1-4)]Man(a1-3)[GlcNAc(b1-4)][Neu5Ac(a2-3)Gal(b1-4)GlcNAc(b1-2)[Neu5Ac(a2-3)Gal(b1-4)GlcNAc(b1-6)]Man(a1-6)]Man(b1-4)GlcNAc(b1-4)GlcNAc
# Method in brief: as §1
binder,measurement,setting,value
SP16663B-bot-321-25-321 (Bacteroides ovatus) (protein) DDDDEVTMNSKFYLSTKVFPVDSYEASLSVILKDNSVVVNELQPNYRFVACATERLSKDVKITADSDDNLVSAYNKANDTEYNILPAENYSFTNKTVTIENGESVSGDSIKIELLNVGSLTTEGGYLLPVTISSIEGNNLDALSSNRGVVYLKIQNIHVNVESGQPAEGTLIADRSGWTVKVAPTTRGDAKNLIDGTNSDVARDGGAEYWLTVDIGKVQTLTGIRNKCYASSYSPTAVEVFTSSDGAKWKSIGAVTISKSGTQYIKFSKAVETRYLKYYVKQGPNTVSLTEFDLYAK,glycan array binding signal (z-score),[1],-0.127
same,glycan array binding signal (z-score),[2],0.523
same,glycan array binding signal (z-score),[3],-0.247
same,glycan array binding signal (z-score),[4],0.967
same,glycan array binding signal (z-score),[5],0.683
same,glycan array binding signal (z-score),[6],-0.736
same,glycan array binding signal (z-score),[7],-0.259
same,glycan array binding signal (z-score),[8],-0.459
same,glycan array binding signal (z-score),[9],0.012
same,glycan array binding signal (z-score),[10],-0.024
same,glycan array binding signal (z-score),[11],-0.003
same,glycan array binding signal (z-score),[12],0.469
same,glycan array binding signal (z-score),[13],-0.373
same,glycan array binding signal (z-score),[14],-0.205
same,glycan array binding signal (z-score),[15],0.077
same,glycan array binding signal (z-score),[16],-0.319
same,glycan array binding signal (z-score),[17],-0.185
same,glycan array binding signal (z-score),[18],0.016
same,glycan array binding signal (z-score),[19],-0.225
same,glycan array binding signal (z-score),[20],-0.284
same,glycan array binding signal (z-score),[21],0.073
same,glycan array binding signal (z-score),[22],-0.885
same,glycan array binding signal (z-score),[23],-0.178
same,glycan array binding signal (z-score),[24],-0.272
same,glycan array binding signal (z-score),[25],-0.351
same,glycan array binding signal (z-score),[26],-0.039
same,glycan array binding signal (z-score),[27],-0.154
same,glycan array binding signal (z-score),[28],-0.601
same,glycan array binding signal (z-score),[29],0.435
same,glycan array binding signal (z-score),[30],-0.445
same,glycan array binding signal (z-score),[31],0.578
same,glycan array binding signal (z-score),[32],-0.322
same,glycan array binding signal (z-score),[33],-0.489
same,glycan array binding signal (z-score),[34],0.033
same,glycan array binding signal (z-score),[35],0.131
same,glycan array binding signal (z-score),[36],0.957
same,glycan array binding signal (z-score),[37],-0.138
same,glycan array binding signal (z-score),[38],-0.092
